Test results taken from PubChem BioAssay AID1468 (National Center for Advancing Translational Sciences (NCATS), 2008).
About 1,100 (0.39%) of roughly 280,000 compounds were called active. The shares of active, inactive and inconclusive entries below differ from those in the screen. Calls come from the whole dose curve; as a rule, active = well fitted inhibition curve with a large enough effect; inconclusive = small, poorly fitted or top-dose-only effect, or effect the other way; inactive = flat fitted curve, though single readings scatter. No potency is given beside an inconclusive call; the fits are too rough.

The compounds below were run against Microtubule-associated protein tau (Homo sapiens) (UniProt P10636) (assay: qHTS for Inhibitors of Tau Fibril Formation, Fluorescence Polarization). Conditions: K18 P301L tau heparin fibrillization, Alexa594 FP, 6 h; series mostly up to 57.7 µM; activity, negative = inhibition: at the top concentration.
Chain of UniProt P10636 (P10636 whole entry, looked up, the tested form may be a part): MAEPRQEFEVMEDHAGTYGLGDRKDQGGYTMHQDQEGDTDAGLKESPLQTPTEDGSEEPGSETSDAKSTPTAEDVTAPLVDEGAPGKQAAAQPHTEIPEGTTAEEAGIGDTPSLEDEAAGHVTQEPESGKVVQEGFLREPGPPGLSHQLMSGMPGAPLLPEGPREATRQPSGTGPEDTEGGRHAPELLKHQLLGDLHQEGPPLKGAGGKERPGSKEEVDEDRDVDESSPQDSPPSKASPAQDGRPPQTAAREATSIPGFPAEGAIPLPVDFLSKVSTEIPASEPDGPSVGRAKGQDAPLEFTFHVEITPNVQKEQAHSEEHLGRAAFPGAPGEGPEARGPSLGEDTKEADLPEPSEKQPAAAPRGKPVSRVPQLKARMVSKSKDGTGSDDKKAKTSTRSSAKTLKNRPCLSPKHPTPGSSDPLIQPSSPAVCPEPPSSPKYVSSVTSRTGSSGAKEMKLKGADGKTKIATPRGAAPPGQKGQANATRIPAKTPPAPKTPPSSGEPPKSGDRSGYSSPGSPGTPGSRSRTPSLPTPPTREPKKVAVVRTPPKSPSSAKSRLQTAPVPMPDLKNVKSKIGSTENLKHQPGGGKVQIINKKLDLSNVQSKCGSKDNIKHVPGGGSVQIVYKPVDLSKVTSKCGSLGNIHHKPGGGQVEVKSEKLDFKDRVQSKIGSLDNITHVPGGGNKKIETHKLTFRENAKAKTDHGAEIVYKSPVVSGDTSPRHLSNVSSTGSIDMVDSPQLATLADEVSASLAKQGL
In short: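 Human K18 P301L fragment (15 uM unlabeled plus 0.24 uM Alexa 594-labeled) in 100 mM sodium acetate pH 7 with compound, aggregation induced by 20 uM heparin for 6 hr at 37 C. ThT (30 uM) added for 1 hr, then Alexa 594 FP read.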
% is set by controls: 0 for no effect and ±100 for the full control effect; potency is the fitted concentration of half-maximal effect; tags give direction and shape of the fitted curve.
Note: nearly all actives have a fitted effect of over 55% in size.

Row | Structure (SMILES) | Potency | activity, negative = inhibition
1 | N=c1oc2ccccc2cc1-c1nc(-c2ccccc2)cs1 | inconclusive [inhibitor, partial curve] | –
2 | COc1ccc(NC(=O)CC2C(=O)N(c3ccc(Cl)cc3)C(=S)N2NC(=O)c2cccc(F)c2)cc1 (stereo not drawn) | inconclusive [inhibitor, partial curve] | –
3 | CCOC(=O)c1[nH]c2ccccc2c1NC(=O)NC(C)C | inconclusive [activator, single point] | –
4 | Oc1ccc(N=Nc2nc(-c3ccccc3)c(-c3ccccc3)[nH]2)cc1 | inconclusive [inhibitor, single point] | –
5 | CC(/C=C/c1ccco1)=N\NC(=O)COc1ccc(C)c(C)c1 | inconclusive [inhibitor, single point] | –
6 | O=C(Nc1cccc(C(F)(F)F)c1)Oc1ccc(Cl)c2cccnc12 | active: 20 µM | –
7 | O=C(NC1CC(=O)N(c2ccc(F)cc2)C1)c1cc2ccccc2o1 (stereo not drawn) | – | inactive: -13.8%
8 | CCOC(=O)c1c(NC(=O)c2noc3c2CC(C(C)(C)C)CC3)sc2c1CCCC2 (stereo not drawn) | inconclusive [inhibitor, single point] | –
9 | O=C(NCC(c1cccs1)S(=O)(=O)c1cccs1)c1ccccc1 (stereo not drawn) | – | inactive: -8.84%
10 | CCOC(=O)c1ccc(NC(=O)C2Cc3ccccc3CN2S(=O)(=O)c2ccc(Cl)cc2)cc1 (stereo not drawn) | inconclusive [inhibitor, full curve, poor fit] | –
11 | COc1ccc(Cl)cc1NS(=O)(=O)c1cc(-c2cc(C)no2)ccc1C | – | inactive: -9.97%
12 | CC(=O)N1CCC(N(Cc2ccco2)C(=O)Nc2cccc(C)c2)CC1 | – | inactive: 2.85%
13 | COc1ccc(-c2nnc(-c3cccs3)o2)cc1OC | – | inactive: -3.05%
14 | COc1ccc(-c2cc(C(=O)Nc3c(C(=O)c4ccc(Cl)cc4)oc4ccccc34)no2)cc1 | inconclusive [inhibitor, single point] | –
15 | O=C(CCNc1cccc(Cl)c1)c1cccs1 | inconclusive [activator, single point] | –
16 | Cc1cccc(NC(=O)c2cnn(-c3ccccc3)c2-n2cccc2)c1C | – | inactive: -2.61%
17 | COc1ccccc1NC(=O)CSc1nc2c(oc3ccccc32)c(=O)n1-c1ccc(C)cc1 | – | inactive: -11.4%
18 | COc1ccccc1N1C(=O)CC(Nc2ccc(N3CCOCC3)cc2)C1=O (stereo not drawn) | – | inactive: -7.21%
19 | O=C(NN1C(=O)C2C(c3ccccc3)C=CC(c3ccccc3)C2C1=O)c1ccccc1 (stereo not drawn) | inconclusive [inhibitor, partial curve] | –
20 | CO[C@@H]1COC(=O)[C@H](C)NC(=O)C/C=C\[C@@H](C)[C@H](OC)COC(=O)[C@H](C)NC(=O)C/C=C\[C@H]1C | – | inactive: -1.4% [at 11.6 µM]
21 | Cc1cc(Br)ccc1NC(=O)c1cc2c(s1)-c1ccccc1SC2 | inconclusive [inhibitor, single point] | –
22 | O=C(N/N=C/c1cccc(NC(=O)c2ccc(Cl)cc2)c1)c1cccc(O)c1 | inconclusive [inhibitor, partial curve] | –

Row | Structure (SMILES) | Potency | activity, negative = inhibition
23 | c1ccc(-c2cc3c(N4CCN(c5ncccn5)CC4)ncnc3s2)cc1 | inconclusive [activator, full curve] | –
24 | CCOC(=O)c1ccccc1NC(=O)CN(c1ccccc1OC)S(=O)(=O)c1ccc(C)cc1 | inconclusive [inhibitor, single point] | –
25 | Cc1ccc(CNc2nc3c(S(=O)(=O)c4ccccc4)nnn3c3ccsc23)cc1 | inconclusive [inhibitor, partial curve] | –
26 | COCCN1C(=O)N[C@@H](c2cccc(C(F)(F)F)c2)C(C(C)=O)=C1C | inconclusive [inhibitor, single point] | –
27 | COc1cc(/C=C/c2nc(C#N)c(NC3CCCCC3)o2)cc(OC)c1OC | – | inactive: 8.31%
28 | C=C1CC[C@H](O)C/C1=C/C=C1\CCC[C@]2(C)C([C@H](C)CCCC(C)(C)O)CC[C@@H]12 (stereo partly drawn) | inactive | –
29 | CC(C)CC(=O)NC(=S)Nc1nc(-c2cccc3ccccc23)cs1 | inconclusive [inhibitor, single point] | –
30 | COC(=O)c1cc2occc2n1Cc1nc(-c2ccccc2Cl)oc1C | inconclusive [inhibitor, single point] | –
31 | Cc1ccccc1C(=O)Nc1ccc(Br)cn1 | – | inactive: -1.53%
32 | O=C(COc1cccc(NC(=O)c2ccccc2)c1)c1ccccc1 | inconclusive [inhibitor, single point] | –
33 | CCC(=O)Nc1nnc(S(=O)(=O)N(C)Cc2ccccc2)s1 | inconclusive [inhibitor, partial curve, poor fit] | –
34 | COc1cc(NC(=O)CSCc2cnn(-c3ccccc3)c2-n2cccc2)cc(OC)c1 | inconclusive [inhibitor, partial curve] | –
35 | COc1cc(/C=N/NC(=O)c2cccnc2)ccc1OC(=O)c1ccc([N+](=O)[O-])cc1 | inconclusive [inhibitor, partial curve, poor fit] | –
36 | COc1cccc(C(=O)NC(=O)Nc2ccc(-c3cc(C(F)(F)F)nn3-c3ccccc3)cc2)c1 | inconclusive [inhibitor, single point] | –
37 | Cn1c(SCC(=O)c2ccc(-c3ccccc3)cc2)nnc1-c1ccco1 | – | inactive: 1%
38 | O=C(Nc1ccc(N2CCN(C(=O)c3ccco3)CC2)cc1)C(c1ccccc1)c1ccccc1 | inconclusive [activator, full curve, poor fit] | –
39 | Cn1c(=O)n(C/C=C/c2ccccc2)c(=O)c2c1nc1n2CCN1c1ccc(F)cc1 | – | inactive: -7.41%
40 | COc1c(C)cc(C(=O)C2CCCN(C(=O)c3ccc4cc[nH]c4c3)C2)cc1C (stereo not drawn) | – | inactive: 5.05%
41 | CCOc1ccc(-n2c(SCC(=O)Nc3cccc(Cl)c3)nc3c(oc4ccccc43)c2=O)cc1 | – | inactive: -14.8%
42 | O=C1NC(=S)CN1c1ccccc1 | inconclusive [inhibitor, single point] | –
43 | CCN1C(=O)c2ccccc2Sc2ccc(NC(=O)COc3ccc(Cl)cc3)cc21 | inconclusive [inhibitor, single point] | –
